Assay results from EP0243717A1 (priority 1986, dated 1987).

Legend:
[1] = test system: C. novyi KB 136 (ILD 140); assay: microbe, parasite or virus in culture; conditions: Clostridium novyi; Medium B; read-out: MIC
Source text: (§1) For reference, the minimum growth inhibition concentrations (MIC) to various bacteria of above five drugs and Lankacidin C are shown in Table 3.

[2] = test system: E. coli KB 176 (NIHJ JC-2); assay: microbe, parasite or virus in culture; conditions: Medium A
Source text: as §1

[3] = test system: C. kainantoi KB 133 (IFO 3353); assay: microbe, parasite or virus in culture; conditions: Clostridium butyricum, IFO3353
Source text: as §1

[4] = test system: Treponema hyodysenteriae B 204
[5] = Escherichia coli, NIHJJC2, read-out: MIC
[6] = Treatment A, hygromycin A 10 g/ton feed, Total
[7] = Treatment A, hygromycin A 10 g/ton feed, per group (Group No. 6, 9)
[8] = Treatment B, hygromycin A 5 g/ton feed, Total
[9] = Treatment B, hygromycin A 5 g/ton feed, per group (Group No. 1, 8)
[10] = Treatment C, hygromycin A 1 g/ton feed, Total
[11] = Treatment C, hygromycin A 1 g/ton feed, per group (Group No. 2, 5)

## CCC[C@@H]1C[C@@H](C(=O)N[C@@H]([C@H]2O[C@H](SC)[C@H](O)[C@@H](O)[C@H]2O)[C@@H](C)O)N(C)C1 [Lincomycin]
[1]
  MIC: < 0.2 µg/mL
[2]; [5]
  MIC: > 100 µg/mL
[3]
  MIC: 3.12 µg/mL (≈ 7.67 µM)

## CC(=O)[C@H]1O[C@@H](Oc2ccc(/C=C(\C)C(=O)N[C@@H]3[C@H](O)[C@@H](O)[C@H]4OCO[C@H]4[C@@H]3O)cc2O)[C@@H](O)[C@@H]1O [Hygromycin A, hygromycin A]
[2]
  MIC: >100 µg/mL
[4]; [6]
  General appearance : No of pig days Depressed: 0 pig days
  General appearance : No of pig days Moribund: 0 pig days
  General appearance : No of pig days Normal: 290 pig days
  General appearance : share of pig days Normal: 100%
[4]; [7]
  General appearance : No of pig days Depressed: 0 pig days
  General appearance : No of pig days Moribund: 0 pig days
  General appearance : No of pig days Normal: 145 pig days
[4]; [8]
  General appearance : No of pig days Depressed: 0 pig days
  General appearance : No of pig days Moribund: 0 pig days
  General appearance : No of pig days Normal: 290 pig days
  General appearance : share of pig days Normal: 100%
[4]; [9]
  General appearance : No of pig days Depressed: 0 pig days
  General appearance : No of pig days Moribund: 0 pig days
  General appearance : No of pig days Normal: 145 pig days
[4]; [10]
  General appearance : No of pig days Depressed: 0 pig days
  General appearance : No of pig days Moribund: 0 pig days
  General appearance : No of pig days Normal: 290 pig days
  General appearance : share of pig days Normal: 100%
[4]; [11]
  General appearance : No of pig days Depressed: 0 pig days
  General appearance : No of pig days Moribund: 0 pig days
  General appearance : No of pig days Normal: 145 pig days
[4]; even at 1 g/ton feed, same level as 50 g/ton feed of carbadox
  curative effect on swine dysentery: curative effect
[4]; groups A-C (hygromycin A 10, 5, 1 g/ton feed) versus nonmedicated group E
  degree of lesions: slighter than that of in group E
[4]; groups A-C, hygromycin A 10, 5, 1 g/ton feed, […], same degree as carbadox group
  body weight changes / feed effectiveness: a decrease of feed effectiveness was prevented
[4]; groups A-D (hygromycin A 10, 5, 1 g/ton feed; carbadox 50 g/ton feed): a little number of pigs revealed soft feces
  fecal score: almost thereof was normal

## C=C[C@]1(C)C[C@@H](OC(=O)CSCCN(CC)CC)[C@]2(C)[C@H](C)CC[C@]3(CCC(=O)[C@H]32)[C@@H](C)[C@@H]1O [Dynamutilin, tiamulin]
[1]
  MIC: < 0.2 µg/mL
[2]; [5]
  MIC: > 100 µg/mL
[3]
  MIC: 1.56 µg/mL (≈ 3.16 µM)

Values after ≈ are worked out from the molar mass of the structure shown. Read-outs that look alike come from different tables or passages of the source.
